Measurements taken from PubChem BioAssay AID1347041 (National Center for Advancing Translational Sciences (NCATS), 2019).
The campaign covered roughly 480,000 compounds. About 740 (0.15%) were called active. The inconclusive results got no clear call from the source; some entries with a clear call stand among them for comparison. Rule as the data show it: active = activity change below about -30%; inconclusive = mostly about -25% to -30%; inactive = weaker than that. A structure can be active in one record and inactive in another.
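Also: values are at about 110 or 230 µM; plate controls were DMSO wells for no effect and wells without enzyme for full effect.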

These molecules were tested against L-lactate dehydrogenase A chain (Homo sapiens) (UniProt P00338) (assay: qHTS assay for inhibitors of human lactate dehydrogenase). Conditions: purified LDHA, NADH/diaphorase-resazurin fluorescence; stronger effect = lower value.
Method in brief: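 Resorufin fluorescence (ex540/em590), read at 0 and 20 min after diaphorase/resazurin addition, reports the NADH left after a 5 min room-temperature reaction of 2 nM human LDH5 with 0.06 mM NADH and 0.2 mM pyruvate.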
In the case of Cc1nc(C)c(C(=O)NCc2ccc(Cl)cc2)o1, the activity change is reported as inactive: 0.455%.
In the case of COC(=O)c1cc(NC(=O)CN(C)C2CCS(=O)(=O)C2)cc(C(=O)OC)c1 (centres undefined), the activity change is reported as inconclusive: -28.7%.
With COc1ccccc1C1(CC(=O)Nc2nccs2)CCOC(C(C)C)C1 (centres undefined) the activity change was inactive: -0.567%.
For Cc1cc(C)n(-c2nc3ccccc3nc2N2CCN(S(=O)(=O)c3ccc(C)c(C)c3)CC2)n1, the activity change was active: -30.2%.
CC(Sc1nc2ccc(F)cc2c(=O)[nH]1)C(=O)NC1CC1 (centres undefined) was tested, and the activity change was inconclusive: -27.8%.
For CCOC(=O)C1CCCN(CC(=O)Nc2cccc(C(C)=O)c2)C1 (centres undefined), the activity change was inconclusive: -28.7%.
With COc1ccc(/C=C(\C#N)C(=O)Nc2cccc(C(F)(F)F)c2)cc1OC the activity change was inconclusive: -26%.
In the case of CCc1ccc(/C=C/C(=O)c2cc(Br)ccc(=O)c2O)cc1, the activity change is reported as inactive: -8.27%.
For Cc1cc(OC(=O)c2ccco2)c(Sc2ccccc2[N+](=O)[O-])c(=O)o1, the activity change was active: -106%.
With COc1ccc(Cl)cc1NC(=O)C(=O)NCc1ccncc1 the activity change was inactive: -6.85%.
COc1ccc(OCCCn2ccnc2)cc1 was tested, and the activity change was inconclusive: -26%.
CSc1nnc(-c2ccc(NC(=O)CCc3ccccc3)cc2)n1C was tested, and the activity change was inconclusive: -35.6%.
With COc1ccccc1N1CCN(CC(=O)Nc2c(C)n(C)n(-c3ccccc3)c2=O)CC1 the activity change was inconclusive: -25.2%.
For O=C(O)CN1C(=O)/C(=C\c2cc(Br)ccc2OCc2ccc(Cl)cc2)SC1=S, the activity change was active: -40.2%.
In the case of O=C(N=Nc1c(O)[nH]c2ccccc12)c1cc(-c2cccs2)[nH]n1, the activity change is reported as active: -39.5%.
With COc1ccc(C(=O)Nc2ccc3oc(=O)ccc3c2)cc1 the activity change was inconclusive: -25.5%.
CCOc1ccccc1NC(=O)CSc1nnc2c(CC)c(C)nc(N)n12 was tested, and the activity change was inactive: 1.98%.
In the case of COc1ccccc1NC(=O)CSc1ncc(CO)n1Cc1ccc(F)cc1, the activity change is reported as inconclusive: -27.2%.
CCCCN1CNC(=S)N(CCc2ccc(OCC)c(OCC)c2)C1 was tested, and the activity change was inactive: -7.02%.
For CC(=O)C1=C(c2cccc([N+](=O)[O-])c2)N(C(C)=O)n2c(C)nnc2S1, the activity change was inconclusive: -26.3%.
CCn1c2ccccc2c2cc(/C=C3/C=Cc4ccccc43)ccc21 was tested, and the activity change was active: -54.7%.
O=S(=O)(NCC1CN(Cc2ccccc2)CCO1)c1cccc(F)c1 (centres undefined) was tested, and the activity change was inconclusive: -25.2%.
In the case of COc1cccc(-c2nc(CS(=O)(=O)CC(=O)Nc3cccc(C(F)(F)F)c3)c(C)o2)c1, the activity change is reported as active: -30%.
CCCC1CC(C)(c2csc(Nc3ccc(OCC)cc3)n2)OC1=O (centres undefined) was tested, and the activity change was inactive: 0.99%.
In the case of CCc1ccc(N(CC(=O)Nc2ccccc2C(=O)NCC2CCCO2)S(C)(=O)=O)cc1 (centres undefined), the activity change is reported as inconclusive: -29.1%.
O=C(CCNS(=O)(=O)c1ccccc1C(F)(F)F)N1CCN(C(c2ccccc2)c2ccccc2)CC1 was tested, and the activity change was inactive: -4.34%.
With O=C(COc1ccc2ccccc2c1)NNC(=O)Cc1ccccc1 the activity change was inactive: -1.47%.
With CCOC(=O)N1CCN(C(=O)c2ccc(N3C(=O)CCC3=O)cc2)CC1 the activity change was inconclusive: -26.4%.
For Cc1ccccc1-c1nnc(Cc2ccccc2)o1, the activity change was inactive: 5.71%.
With C/C(CCc1oc2ccc(Br)cc2c1-c1ccc(C)o1)=N\O the activity change was inconclusive: -29.4%.
For O=C(Cn1nc(Br)nc1Br)c1ccc(F)cc1, the activity change was inconclusive: -29.6%.
In the case of CN(C)CCOc1ccc(C(C)(C)c2ccccc2)cc1, the activity change is reported as active: -37.8%.
For O=C1NC(=S)NC(=O)C1Nc1ccc(Cl)cc1, the activity change was inconclusive: -25.9%.
In the case of O=C(Nc1ccc(Cl)c(Cl)c1)c1ccc(Cn2c(=O)[nH]c3ccsc3c2=O)cc1, the activity change is reported as active: -32.2%.
For O=C(Oc1ccccc1)c1cnc2ccccc2n1, the activity change was inconclusive: -28.4%.
c1ccc(-c2ccccc2OCCOCCN2CCOCC2)cc1 was tested, and the activity change was active: -45%.
With CCN(CC(=O)NC)S(=O)(=O)c1cccc2cc(C)cnc12 the activity change was inconclusive: -25.9%.
For CC(NS(=O)(=O)Cc1ccc(F)cc1)c1cccs1 (centres undefined), the activity change was inconclusive: -28.6%.
With CC(C)CCNc1nc(-c2ccc(O)c(C(N)=O)c2)cs1 the activity change was inconclusive: -26.5%.
In the case of CSc1ccccc1C(=O)Nc1c(C)cc(C)cc1C, the activity change is reported as active: -31.8%.
For O=C(c1ccco1)N1CCN(Cc2cccc([N+](=O)[O-])c2)CC1, the activity change was inconclusive: -29.6%.
For COc1ccc(NC(C)c2nnc(-c3cccs3)o2)c(OC)c1 (centres undefined), the activity change was inconclusive: -27.3%.
O=C(CN1CCN(C2CCCCC2)CC1)Nc1ccccc1-c1ccccc1 was tested, and the activity change was inconclusive: -26.2%.
In the case of Cc1ccc(C(=O)c2oc3ccccc3c2NC(=O)c2nc(S(C)(=O)=O)ncc2Cl)cc1F, the activity change is reported as inconclusive: -27.7%.
O=C(N[C@H](CO)Cc1ccccc1)c1nc(-c2ccc3[nH]ccc3c2)no1 was tested, and the activity change was inconclusive: -27%.
COc1ccc(-c2cc(C(F)F)n3ncc(C(=O)N4CCCCC4)c3n2)cc1 was tested, and the activity change was inactive: -5.37%.
For COc1cc(CN2CCN(Cc3ccco3)CC2)cc(OC)c1, the activity change was active: -32.3%.
CCc1ccccc1N(C(C)=O)c1nc(COc2ccccc2C(N)=O)cs1 was tested, and the activity change was active: -30.1%.
For O=C(N/N=C/c1ccc([N+](=O)[O-])s1)c1ccccc1, the activity change was active: -62.8%.
In the case of COc1cccc(C2/C(=C(\O)c3ccc4c(c3)OCCO4)C(=O)C(=O)N2CCc2ccccc2)c1 (centres undefined), the activity change is reported as inconclusive: -26.1%.
In the case of Cc1cccc(-n2c(O)c(C=NCc3ccccn3)c3ccccc3c2=O)c1, the activity change is reported as inactive: -2.67%.
O=C(CCc1c[nH]c2ccccc12)NCc1ccncc1 was tested, and the activity change was active: -32.3%.
For CN(C)c1ccc(NC(=O)c2ccc[n+]([O-])c2)cn1, the activity change was inconclusive: -29.6%.
In the case of Cc1cc(/C=C(\C#N)C(=O)O)c(C)n1CC1CCCO1 (centres undefined), the activity change is reported as inactive: -0.616%.
For Cc1cc(Nc2cccc(Cl)c2)nc2ccc(NC(=O)C3CCCCC3)cc12, the activity change was inconclusive: -25%.
With Cc1ccc(NC(=O)CSc2nnc(C)c(=O)n2N)c(C)c1 the activity change was active: -37.5%.
For N#Cc1cnc2ccccc2c1Nc1cccc(C(F)(F)F)c1, the activity change was inconclusive: -27.4%.
With Cc1ccc(NC(=O)N2CCC(NC(=O)c3ccco3)CC2)cc1 the activity change was inactive: -5.99%.
Cc1c(NC(=O)c2c(NC(=O)CNC3CC3)sc3c2CCCC3)c(=O)n(-c2ccccc2)n1C was tested, and the activity change was active: -88.7%.
